Here are results for 34 variants from the RNAGym collection of RNA variant scans (doi:10.1093/nar/gkz1192).

The source gives no read counts; variants with many changes may rest on few reads.

The labels stand for the following.
B1: CPEB3 Ribozyme (parent)
chain: UAACAGGGGGCCACAGCAGAAGCGUUCACGUCGCAGCCCCUGUCAGAUUCUGGUGAAUCUGCGAAUUCUGCUGUAUAUCUC

The variants in the data set derive from B1. As to the kind of experiment: self-cleavage, relative activity (ratio to wild type); higher = more cleavage; in vitro, sequencing. The method in brief:
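Barcoded CPEB3 ribozyme mutants, produced by rounds of error-prone PCR, self-cleaved while being transcribed with T7 RNA polymerase for 5 hours at 37°C and during a subsequent 15 min DNase I step before EDTA was added. Sequencing of template-switched cDNA on Illumina gave cleaved and total reads, and DNA sequencing assigned barcodes to variants. Each variant's relative activity is its cleaved/total read fraction divided by the unmutated ribozyme's fraction, averaged across three batches. A variant needed a minimum of 5 reads.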
In the case of UAACAGGGGGCCACAGCAGAGGCGUACACGUCGCAGCCCCUGUCAGGUUCUGGAGAAUCUGCGAAUUCCGCUGUAUAUCUC, the self-cleavage is 0.36. The same measure for UAACAGGGGGCCACAGCAGAGGCGCUCACGUCGCAGCCCCUGUCAGAUUCUGGUGAAUCUGCGAAUUCUGCUGUAUAUCAC: 0.36; for UAACAGGGGGCCACAGCAGAGGCGCUCACGCCGCAGCCCCUGUCAGAUUCUGGUGAAUCUGCGAAUUCUGCUGUAUAUCUC: 0.53. Under UAACAGGGGGCCACAGCAGAGGCGCUCACGACGCAGCCCCUGUCAGAUUCUGGUGAAUCUGCGAAUUCUGCUGUAUAUCUC stands 0.33. Under UAACAGGGGGCCACAGCAGAGGCGCUCACGUCGCAGCCCCUGCCAGAUUCAGGUGAAUCUGCGAAUUCUGCUGUAUAUCUC stands 0.11; under UAACAGGGGGCCACAGCAGAGGCGCUCACGUCGCAGCCCCUGCCAGAUUCCGGUGAAUCUGCGAAUUCUGCUGUAUAUCUC, 0.37. Regarding UAACAGGGGGCCACAGCAGAGGCGCUCACGUCGCAGCCCCUGUCAGAAUCUGGUGAAUCAGCGAAUUCUGCUGUACGUCUC, the self-cleavage stood at 0.04.

As to UAACAGGGGGCCACAGCAGAGGCGUACACGUCGCAGCCCCUGUCAGAUUCUGGUGAAUCUGUGAAUUCUGCUGUAUAUCUC, the self-cleavage turned out to be 0.09.

With UAACAGGGGGCCACAGCAGAGGCGCUCAUGUCGCAGCCCCAGUCAGAUUCUGGUGAAUCUGCGAAUUCUGCUGUAUAUCUC, the self-cleavage turned out to be 0.11. Under UAACAGGGGGCCACAGCAGAGGCGCUCACGUCGCAGCCCCUGUCAGAUCCUGGUGAAUCUGCGAAUUCUGCUGCAUAUCCC stands 0.31. For the variant UAACAGGGGGCCACAGCAGAGGCGCUCACGUCGCAGCCCCUGUCAGAUUCUGGUGAAUCCGCGAAUUCUGCUGUAUAUCUC, the self-cleavage worked out at 0.21. Under UAACAGGGGGCCACAGCAGAGGCGCUCACGUCGCAGCCCCCGUCAGAUUCUGGUGAAUCCGCGAAUUCUGCUGUAUAUCUC stands 0.14. In the case of UAACAGGGGGCCACAGCAGAGGCGUACACGUCGCAGCCCCUGCCAGAUUCUGGUGGAUCUGCGGAUUCUGCUGUAUGUCUC, the self-cleavage came out at 0.03. Under UAACAGGGGGCCACAGCAGAGGCGCUCACGUCGCAGCCCCUGUCAGAUUAUGGUGAAUCUGCGAAUUCUGCUGUAUAUCUC stands 0.22; under UAACAGGGGGCCACAGCAGAGGCGCUCACGUCGCAGCCCCCGUCAGAUUCUGGUGAAUCUGCGAAUUCUGCUGUAUAUCUC, 0.34.

Regarding UAACAGGGGGCCACAGCAGAGGCGCUCACGUCGCAGCCCCUGACAGAUUCUGGUGAAUCCGCGAAUUCUGCCGUGUAUCUC, the self-cleavage is 0.11.

Take UAACAGGGGGCCACAGCAGAGGCGUACACGUCGCAGCCCCUGUCAGAUUCUGGUGAAUCAGCGAAUUCUGCUGUAUAUCUC: the self-cleavage stood at 0.09. Under UAACAGGGGGCCACAGCAGAGGCGCUCACGUCGCAGCCACUGCCAGAUUCUGGCGAAUCUGCGAAUUCUGCUGUAUAUCUC stands 0.21; under UAACAGGGGGCCACAGCAGAGGCGCUCACGUCGCAGCCCCUGCCAGAUUCUGGUGAAUCUGCGGAUUCUGCUGUAUAUCCC, 0.54; under UAACAGGGGGCCACAGCAGAGGCGCUCACGUCGCAGCCCCUGUUAGAUUCUGGUGAAUCUGCGAAUUCUGCAGUAUAUCUC, 0.34. The same measure for UAACAGGGGGCCACAGCAGAGGCGUACACGUCGCAGCCCCCGUCAGAUUCUGGUGAAUCUGCGAAUUCUGCUGUGUAUCUC: 0.47; for UAACAGGGGGCCACAGCAGAGGCGCUCACGUCGCAGCCCCUGUCAGAUUCUGGUGAAUCCGCGAGUUCUGCUGUAUAUCUC: 0.02; for UAACAGGGGGCCACAGCAGAGGCGUACACGUCGCAGCCCCUGUCAGAUUCUGGUGAAACUGCGAAUUCUGCUGUAUAUCUC: 0.18. Consider UAACAGGGGGCCACAGCAGAGGCGCUCACGUCGCAGCCCCUGUCAGAUUCUGGUGAAUCUGCGAAUUCUGCCGUAUAUCUC, for which the self-cleavage stood at 0.36. As to UAACAGGGGGCCACAGCAGAGGCGCUCACGUCGCAGCCCCUGUCAGAUUCUGGUGAAUCUGCGAAUUCUGCAGUAUAUCUC, the self-cleavage turned out to be 0.49. Under UAACAGGGGGCCACAGCAGAGGCGUACACGUCGCAGCCCCGGUCUGAUUCUGGUGAAUCUGCUAAUUCCGCUGUAUAUCUC stands 0.04; under UAACAGGGGGCCACAGCAGAGGCGCUCACGUCGCAGCCCCAGUCAGAAUCUGCUGAAUCUGCGAAUACUGCUGUAUAUCCC, 0.17; under UAACAGGGGGCCACAGCAGAGGCGCUCAUGUCGCAGCCCCUGUCAGAUUCUGGUGGAUCUGCGGAUUCCGCUGUAUAUCCC, 0.03. Under UAACAGGGGGCCACAGCAGAGGCGUACACGUCGCAGCCCCUGUCAGAUUCUGGUGAAUCUGCGAAUUCUGCAGUAUAUCUC stands 0.18. Under UAACAGGGGGCCACAGCAGAGGCGUACACGUCGCAGCCCCUGCCAGAUUCAGGUGAAUCUGCGAAUUCUGCUGUAUAUCUC stands 0.08; under UAACAGGGGGCCACAGCAGAGGCGUACACGUCGCAGCCCCUGUCAGGUUCUGGUGAAUCGGCGAAUUCUGCUGCAUGUCUC, 0.15. On to UAACAGGGGGCCACAGCAGAGGCGGACACGUCGCAGCCCCUAUCAGAUUCUGGUGAAUCUGCGAAUUCUGCUGUAUAUCUC, for which the self-cleavage came to 0.06. Under UAACAGGGGGCCACAGCAGAGGCGCUCACGUUGCAGCCCCUGUCAGAUCCUGGUGAAUCUGCGAACUCUGUUGUAUAUCUC stands 0.02. The same measure for UAACAGGGGGCCACAGCAGAGGCGCUCAAGUCGCAGCCCCUGUCAGAUUCCGGUGAAUCAGCGGAUUCUUCUGUAUAUCUC: 0.04.
